Results are given in words; binding and its absence hold for the method and conditions named. For some of these results: In cells and extracts the contact can be indirect. Some results given as binding are weak or reduced against the parent protein; the word gives no strength. For some of these results: Sequences can lack the tags named with a protein.
Legend:
[1] = target: GFP-tagged full-length UNC80 (mouse) (mouse) (UniProt Q8BLN6); assay: co-IP; HEK293T co-transfected with NALCN or UNC79 and GFP-tagged UNC80 constructs; IP with anti-GFP, blot anti-NALCN or anti-UNC79; RIPA buffer (IP buffer with 0.5% deoxycholate and 0.1% SDS); 4 °C (Fig. 8a-c, f, g)
[2] = target: GFP-tagged UNC80 (mouse) truncated at L2654 (residues 1–2653) (mouse) (UniProt Q8BLN6); assay: as above
[3] = target: T1, GFP-tagged truncated UNC80 (mouse), aa 300–1700 (mouse) (UniProt Q8BLN6); assay: co-IP; HEK293T co-transfected with NALCN and GFP-tagged UNC80 constructs; IP with anti-GFP, blot anti-NALCN; IP buffer 50 mM Tris-HCl pH 7.4, 150 mM NaCl, 1% NP-40, 1 mM EDTA; 4 °C (Fig. 5a)
T1 sequence: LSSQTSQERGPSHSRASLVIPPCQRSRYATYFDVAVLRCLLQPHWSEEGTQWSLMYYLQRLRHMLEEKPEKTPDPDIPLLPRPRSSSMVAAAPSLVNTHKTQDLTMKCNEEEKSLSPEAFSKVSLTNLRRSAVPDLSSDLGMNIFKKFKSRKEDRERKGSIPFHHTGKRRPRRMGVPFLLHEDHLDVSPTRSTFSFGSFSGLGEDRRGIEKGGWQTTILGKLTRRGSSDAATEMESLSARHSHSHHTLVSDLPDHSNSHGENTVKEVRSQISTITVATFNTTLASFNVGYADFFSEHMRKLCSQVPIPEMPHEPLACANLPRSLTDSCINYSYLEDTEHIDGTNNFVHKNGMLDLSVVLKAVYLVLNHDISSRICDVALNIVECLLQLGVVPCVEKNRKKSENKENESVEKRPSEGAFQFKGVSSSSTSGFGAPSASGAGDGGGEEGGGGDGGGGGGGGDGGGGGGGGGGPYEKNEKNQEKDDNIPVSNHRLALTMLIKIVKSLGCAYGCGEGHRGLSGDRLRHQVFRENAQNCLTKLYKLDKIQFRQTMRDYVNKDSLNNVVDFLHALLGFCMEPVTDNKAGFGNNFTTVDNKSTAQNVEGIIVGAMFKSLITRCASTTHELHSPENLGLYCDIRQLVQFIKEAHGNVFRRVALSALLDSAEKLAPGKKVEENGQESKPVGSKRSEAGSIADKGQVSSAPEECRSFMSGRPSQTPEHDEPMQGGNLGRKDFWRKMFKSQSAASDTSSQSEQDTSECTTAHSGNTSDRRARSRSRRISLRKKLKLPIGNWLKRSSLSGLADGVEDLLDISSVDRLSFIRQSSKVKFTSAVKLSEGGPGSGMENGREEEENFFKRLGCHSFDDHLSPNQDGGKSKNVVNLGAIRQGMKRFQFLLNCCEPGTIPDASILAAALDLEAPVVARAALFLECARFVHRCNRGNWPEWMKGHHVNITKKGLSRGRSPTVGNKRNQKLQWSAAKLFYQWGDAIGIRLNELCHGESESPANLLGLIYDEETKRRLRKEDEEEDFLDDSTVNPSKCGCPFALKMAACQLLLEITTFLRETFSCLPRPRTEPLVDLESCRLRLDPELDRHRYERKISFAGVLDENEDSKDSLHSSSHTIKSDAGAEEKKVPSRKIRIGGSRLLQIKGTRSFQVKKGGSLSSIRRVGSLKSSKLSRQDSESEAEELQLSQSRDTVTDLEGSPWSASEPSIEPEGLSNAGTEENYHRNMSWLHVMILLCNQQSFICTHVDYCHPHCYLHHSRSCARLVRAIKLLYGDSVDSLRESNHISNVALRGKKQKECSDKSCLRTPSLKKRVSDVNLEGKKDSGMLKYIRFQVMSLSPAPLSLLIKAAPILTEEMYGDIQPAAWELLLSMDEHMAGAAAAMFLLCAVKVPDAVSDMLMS

Amino acid sequences for entries named in this document (tags omitted).
UniProt Q8BXR5: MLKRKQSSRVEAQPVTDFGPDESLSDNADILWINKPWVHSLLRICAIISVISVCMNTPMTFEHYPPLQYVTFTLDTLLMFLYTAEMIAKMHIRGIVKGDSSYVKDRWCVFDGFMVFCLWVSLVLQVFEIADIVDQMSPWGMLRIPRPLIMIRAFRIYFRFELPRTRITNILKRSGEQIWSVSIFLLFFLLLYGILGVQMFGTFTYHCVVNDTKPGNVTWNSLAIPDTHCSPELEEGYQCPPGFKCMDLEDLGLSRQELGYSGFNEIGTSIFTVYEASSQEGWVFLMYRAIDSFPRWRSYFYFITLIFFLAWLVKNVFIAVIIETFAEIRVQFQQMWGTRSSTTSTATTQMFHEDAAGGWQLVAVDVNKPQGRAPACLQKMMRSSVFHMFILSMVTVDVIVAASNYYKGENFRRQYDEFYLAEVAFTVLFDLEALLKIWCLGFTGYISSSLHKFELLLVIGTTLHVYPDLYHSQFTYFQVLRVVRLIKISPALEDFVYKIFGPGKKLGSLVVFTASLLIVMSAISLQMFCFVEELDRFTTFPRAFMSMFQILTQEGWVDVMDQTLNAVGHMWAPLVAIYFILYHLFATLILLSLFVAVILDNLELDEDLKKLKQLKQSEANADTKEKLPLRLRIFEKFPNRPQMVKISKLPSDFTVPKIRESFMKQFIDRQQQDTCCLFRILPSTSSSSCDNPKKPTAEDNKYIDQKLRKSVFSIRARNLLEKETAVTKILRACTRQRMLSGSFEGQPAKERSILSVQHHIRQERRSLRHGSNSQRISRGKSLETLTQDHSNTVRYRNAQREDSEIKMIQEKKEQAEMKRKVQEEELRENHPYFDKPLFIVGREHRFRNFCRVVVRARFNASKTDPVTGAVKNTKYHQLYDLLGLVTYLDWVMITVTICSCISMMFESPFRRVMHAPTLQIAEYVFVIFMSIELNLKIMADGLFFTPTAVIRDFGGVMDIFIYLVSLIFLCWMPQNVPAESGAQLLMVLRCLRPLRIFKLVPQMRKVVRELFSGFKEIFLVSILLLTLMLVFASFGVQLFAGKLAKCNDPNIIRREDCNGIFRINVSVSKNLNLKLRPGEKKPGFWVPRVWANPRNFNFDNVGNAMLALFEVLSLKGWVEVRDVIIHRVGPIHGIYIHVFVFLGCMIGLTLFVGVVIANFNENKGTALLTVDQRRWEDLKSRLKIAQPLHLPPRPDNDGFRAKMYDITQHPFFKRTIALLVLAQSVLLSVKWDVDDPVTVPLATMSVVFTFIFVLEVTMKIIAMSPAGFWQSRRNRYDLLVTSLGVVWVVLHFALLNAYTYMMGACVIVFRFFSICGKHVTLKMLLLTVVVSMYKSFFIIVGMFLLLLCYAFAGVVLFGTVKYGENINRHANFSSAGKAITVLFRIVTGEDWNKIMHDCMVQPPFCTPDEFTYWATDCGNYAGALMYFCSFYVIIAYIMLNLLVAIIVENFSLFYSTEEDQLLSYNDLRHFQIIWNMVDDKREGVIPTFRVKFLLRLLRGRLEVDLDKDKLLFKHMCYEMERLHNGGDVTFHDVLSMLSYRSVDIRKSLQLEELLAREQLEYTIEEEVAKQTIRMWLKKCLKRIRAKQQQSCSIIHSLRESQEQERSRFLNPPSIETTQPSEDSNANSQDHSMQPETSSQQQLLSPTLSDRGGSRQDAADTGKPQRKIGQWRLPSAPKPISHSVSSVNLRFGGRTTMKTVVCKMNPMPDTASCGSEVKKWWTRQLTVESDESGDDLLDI
UniProt Q6Q760: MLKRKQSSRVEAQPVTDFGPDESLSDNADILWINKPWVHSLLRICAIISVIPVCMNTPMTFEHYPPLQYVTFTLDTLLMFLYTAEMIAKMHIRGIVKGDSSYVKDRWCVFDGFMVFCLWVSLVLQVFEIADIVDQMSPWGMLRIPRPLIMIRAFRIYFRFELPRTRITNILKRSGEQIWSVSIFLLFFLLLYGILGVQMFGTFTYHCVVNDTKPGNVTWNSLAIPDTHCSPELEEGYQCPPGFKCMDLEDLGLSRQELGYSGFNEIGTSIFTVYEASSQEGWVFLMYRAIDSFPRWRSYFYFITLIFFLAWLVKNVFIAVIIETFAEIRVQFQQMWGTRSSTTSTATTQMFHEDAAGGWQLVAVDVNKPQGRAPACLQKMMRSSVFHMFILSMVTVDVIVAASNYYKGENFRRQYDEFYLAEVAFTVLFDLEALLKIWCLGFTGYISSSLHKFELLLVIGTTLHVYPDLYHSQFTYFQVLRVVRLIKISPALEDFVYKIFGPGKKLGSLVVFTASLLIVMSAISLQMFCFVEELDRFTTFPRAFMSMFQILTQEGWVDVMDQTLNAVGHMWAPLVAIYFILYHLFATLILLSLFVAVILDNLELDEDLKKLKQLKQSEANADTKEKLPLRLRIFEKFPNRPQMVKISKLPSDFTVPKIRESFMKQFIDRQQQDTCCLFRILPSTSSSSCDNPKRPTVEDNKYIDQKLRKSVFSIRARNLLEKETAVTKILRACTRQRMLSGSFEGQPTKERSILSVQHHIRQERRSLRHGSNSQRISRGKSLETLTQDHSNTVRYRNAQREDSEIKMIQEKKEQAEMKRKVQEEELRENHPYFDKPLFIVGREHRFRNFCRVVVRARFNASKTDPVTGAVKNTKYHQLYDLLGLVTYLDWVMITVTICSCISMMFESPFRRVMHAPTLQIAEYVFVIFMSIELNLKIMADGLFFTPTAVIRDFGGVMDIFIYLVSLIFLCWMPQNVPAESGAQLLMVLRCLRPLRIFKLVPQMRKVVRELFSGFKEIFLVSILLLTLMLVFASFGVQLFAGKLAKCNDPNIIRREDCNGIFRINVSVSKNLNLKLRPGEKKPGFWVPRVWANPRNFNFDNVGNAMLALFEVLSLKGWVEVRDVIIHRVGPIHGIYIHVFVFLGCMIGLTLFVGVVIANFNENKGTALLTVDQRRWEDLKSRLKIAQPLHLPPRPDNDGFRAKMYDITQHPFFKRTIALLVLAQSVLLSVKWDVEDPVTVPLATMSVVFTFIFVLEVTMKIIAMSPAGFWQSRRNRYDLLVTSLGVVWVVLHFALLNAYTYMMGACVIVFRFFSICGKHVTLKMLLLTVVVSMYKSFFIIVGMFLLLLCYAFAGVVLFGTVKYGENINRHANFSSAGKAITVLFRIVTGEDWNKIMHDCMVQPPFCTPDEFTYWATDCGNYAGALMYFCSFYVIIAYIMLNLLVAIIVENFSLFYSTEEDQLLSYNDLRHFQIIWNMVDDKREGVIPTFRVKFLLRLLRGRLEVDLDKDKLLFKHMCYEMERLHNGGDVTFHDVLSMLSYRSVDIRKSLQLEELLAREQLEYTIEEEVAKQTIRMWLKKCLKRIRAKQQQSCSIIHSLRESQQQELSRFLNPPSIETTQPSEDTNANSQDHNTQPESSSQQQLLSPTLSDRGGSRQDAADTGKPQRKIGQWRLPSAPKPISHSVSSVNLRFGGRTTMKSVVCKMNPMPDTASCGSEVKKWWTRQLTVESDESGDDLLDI
UniProt Q0KK59: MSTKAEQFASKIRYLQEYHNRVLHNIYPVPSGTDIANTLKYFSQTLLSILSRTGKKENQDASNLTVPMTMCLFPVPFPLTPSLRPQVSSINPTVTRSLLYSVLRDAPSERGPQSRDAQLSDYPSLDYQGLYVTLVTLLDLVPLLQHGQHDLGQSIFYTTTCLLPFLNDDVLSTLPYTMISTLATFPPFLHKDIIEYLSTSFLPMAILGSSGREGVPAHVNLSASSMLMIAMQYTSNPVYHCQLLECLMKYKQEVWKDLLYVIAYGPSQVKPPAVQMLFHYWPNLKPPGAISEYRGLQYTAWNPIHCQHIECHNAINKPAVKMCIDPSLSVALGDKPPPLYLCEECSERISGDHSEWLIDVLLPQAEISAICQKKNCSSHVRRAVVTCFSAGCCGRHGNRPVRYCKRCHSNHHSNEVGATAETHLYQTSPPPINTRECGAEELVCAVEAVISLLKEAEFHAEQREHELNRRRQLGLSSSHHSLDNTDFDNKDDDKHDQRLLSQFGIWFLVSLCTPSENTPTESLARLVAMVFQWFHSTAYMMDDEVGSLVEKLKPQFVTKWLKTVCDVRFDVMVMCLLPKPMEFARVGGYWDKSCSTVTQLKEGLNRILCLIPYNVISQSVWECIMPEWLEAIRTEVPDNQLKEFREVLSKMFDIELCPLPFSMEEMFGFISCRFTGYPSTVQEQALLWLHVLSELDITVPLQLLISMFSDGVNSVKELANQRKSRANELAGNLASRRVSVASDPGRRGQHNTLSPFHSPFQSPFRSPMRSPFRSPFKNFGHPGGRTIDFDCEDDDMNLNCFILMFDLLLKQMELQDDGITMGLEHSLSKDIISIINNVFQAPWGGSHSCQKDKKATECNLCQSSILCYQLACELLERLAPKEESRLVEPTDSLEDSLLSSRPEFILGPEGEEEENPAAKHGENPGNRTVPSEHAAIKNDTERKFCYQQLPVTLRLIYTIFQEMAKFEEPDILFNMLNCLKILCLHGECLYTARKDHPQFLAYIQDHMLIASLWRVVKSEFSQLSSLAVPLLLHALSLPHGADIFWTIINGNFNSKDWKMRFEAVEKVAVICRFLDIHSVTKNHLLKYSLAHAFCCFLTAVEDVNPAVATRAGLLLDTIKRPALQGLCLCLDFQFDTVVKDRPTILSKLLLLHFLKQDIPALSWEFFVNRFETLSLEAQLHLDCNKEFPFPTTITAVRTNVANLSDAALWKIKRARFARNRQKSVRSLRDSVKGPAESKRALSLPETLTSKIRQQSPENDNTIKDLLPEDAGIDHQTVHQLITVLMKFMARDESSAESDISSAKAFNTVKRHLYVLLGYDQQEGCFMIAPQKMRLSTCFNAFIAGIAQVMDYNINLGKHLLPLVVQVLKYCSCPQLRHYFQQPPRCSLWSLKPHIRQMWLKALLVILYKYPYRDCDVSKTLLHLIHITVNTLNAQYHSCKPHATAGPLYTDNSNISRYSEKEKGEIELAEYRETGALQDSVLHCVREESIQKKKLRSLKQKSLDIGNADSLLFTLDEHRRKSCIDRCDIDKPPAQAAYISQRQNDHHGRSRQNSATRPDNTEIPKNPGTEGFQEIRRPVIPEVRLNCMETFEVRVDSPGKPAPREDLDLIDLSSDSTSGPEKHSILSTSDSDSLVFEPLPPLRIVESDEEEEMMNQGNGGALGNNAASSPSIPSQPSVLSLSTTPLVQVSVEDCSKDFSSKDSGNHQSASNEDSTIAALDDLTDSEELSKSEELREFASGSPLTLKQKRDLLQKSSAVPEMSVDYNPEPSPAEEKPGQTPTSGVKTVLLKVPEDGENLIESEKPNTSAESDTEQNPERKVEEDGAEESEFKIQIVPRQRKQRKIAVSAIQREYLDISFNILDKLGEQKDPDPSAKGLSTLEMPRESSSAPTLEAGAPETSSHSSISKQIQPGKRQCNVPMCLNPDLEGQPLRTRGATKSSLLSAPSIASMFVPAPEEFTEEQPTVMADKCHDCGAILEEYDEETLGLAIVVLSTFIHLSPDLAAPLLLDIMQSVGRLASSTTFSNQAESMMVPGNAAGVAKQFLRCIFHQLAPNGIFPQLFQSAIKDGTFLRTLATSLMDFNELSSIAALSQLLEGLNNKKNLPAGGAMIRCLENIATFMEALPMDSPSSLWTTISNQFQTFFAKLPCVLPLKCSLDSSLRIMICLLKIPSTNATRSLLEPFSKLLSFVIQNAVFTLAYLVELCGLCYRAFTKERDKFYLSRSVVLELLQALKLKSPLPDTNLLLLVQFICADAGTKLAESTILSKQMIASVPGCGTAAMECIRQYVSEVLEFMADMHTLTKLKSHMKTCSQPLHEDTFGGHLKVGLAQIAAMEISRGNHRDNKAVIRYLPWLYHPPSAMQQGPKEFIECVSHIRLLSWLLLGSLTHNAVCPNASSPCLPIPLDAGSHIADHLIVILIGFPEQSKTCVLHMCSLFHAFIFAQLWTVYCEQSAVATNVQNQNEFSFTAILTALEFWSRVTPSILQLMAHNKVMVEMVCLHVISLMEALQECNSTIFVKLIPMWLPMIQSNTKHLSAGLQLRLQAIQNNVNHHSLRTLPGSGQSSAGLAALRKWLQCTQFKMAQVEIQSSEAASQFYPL

[4] = target: T2, GFP-tagged UNC80 (mouse) truncated, residues 1–1266 (R1266*) (mouse) (UniProt Q8BLN6); assay: co-IP; HEK293T co-transfected with NALCN or UNC79 and GFP-tagged UNC80 constructs; IP with anti-GFP, blot anti-NALCN or anti-UNC79; RIPA buffer (IP buffer with 0.5% deoxycholate and 0.1% SDS); 4 °C (Fig. 8a-c, f, g)
T2 sequence: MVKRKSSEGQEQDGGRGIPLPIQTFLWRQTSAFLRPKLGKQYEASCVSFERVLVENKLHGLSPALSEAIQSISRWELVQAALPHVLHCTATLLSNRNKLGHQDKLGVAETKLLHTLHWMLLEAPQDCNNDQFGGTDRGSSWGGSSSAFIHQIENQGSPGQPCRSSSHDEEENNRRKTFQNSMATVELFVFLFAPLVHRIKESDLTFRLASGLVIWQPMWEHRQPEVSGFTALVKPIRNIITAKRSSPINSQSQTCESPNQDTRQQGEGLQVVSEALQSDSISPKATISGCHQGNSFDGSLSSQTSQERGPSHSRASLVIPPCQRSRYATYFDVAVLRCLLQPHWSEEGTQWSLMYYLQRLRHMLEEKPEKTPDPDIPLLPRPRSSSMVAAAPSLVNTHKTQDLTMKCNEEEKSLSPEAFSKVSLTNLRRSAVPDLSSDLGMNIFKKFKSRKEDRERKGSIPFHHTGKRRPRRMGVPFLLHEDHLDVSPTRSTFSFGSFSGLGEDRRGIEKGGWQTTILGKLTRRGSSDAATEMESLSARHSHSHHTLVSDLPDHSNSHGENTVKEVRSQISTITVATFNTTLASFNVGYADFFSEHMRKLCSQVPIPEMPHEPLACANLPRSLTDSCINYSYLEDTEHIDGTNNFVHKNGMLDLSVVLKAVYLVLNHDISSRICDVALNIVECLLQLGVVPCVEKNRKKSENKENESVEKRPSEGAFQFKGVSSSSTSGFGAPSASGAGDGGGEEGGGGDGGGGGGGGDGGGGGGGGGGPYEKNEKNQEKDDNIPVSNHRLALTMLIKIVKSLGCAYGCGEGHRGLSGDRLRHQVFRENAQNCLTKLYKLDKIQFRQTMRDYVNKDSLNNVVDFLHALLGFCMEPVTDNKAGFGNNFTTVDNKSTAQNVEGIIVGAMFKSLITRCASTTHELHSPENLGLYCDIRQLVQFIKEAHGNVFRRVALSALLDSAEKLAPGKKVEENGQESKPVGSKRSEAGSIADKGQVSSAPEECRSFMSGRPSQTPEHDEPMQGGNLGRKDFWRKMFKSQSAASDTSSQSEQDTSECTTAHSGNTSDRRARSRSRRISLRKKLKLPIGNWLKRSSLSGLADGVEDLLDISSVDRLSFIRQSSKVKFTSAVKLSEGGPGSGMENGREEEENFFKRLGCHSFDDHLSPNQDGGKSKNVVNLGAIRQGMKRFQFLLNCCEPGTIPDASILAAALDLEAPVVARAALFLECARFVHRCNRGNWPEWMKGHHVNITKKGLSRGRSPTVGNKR

[5] = target: NALCN fused with a GFP-HA-6xHis triple tag (knock-in mouse) (mouse (endogenous, knock-in mouse brain)) (UniProt Q8BXR5); assay: affinity depletion; adult brain lysate of NALCN-GFP-HA-His knock-in mice (300 mM NaCl, 20 mM HEPES pH 8.0, 1% CHAPS); NALCN depleted with nickel beads, then with agarose-conjugated anti-GFP, 4 °C; lysates before and after depletion blotted for NALCN, UNC79, UNC80

Substance | binding [1] | binding [2] | binding [3] | binding [4] | binding [5]
NALCN (rat), wild type, non-tagged (from UniProt Q6Q760 1-1738) | binds | binds | binds |  | 
UNC79 (mouse), wild type, non-tagged (from UniProt Q0KK59 1-2596) | binds | no binding |  | no binding | 
UNC80, endogenous, mouse brain (from UniProt Q8BLN6-1 1-3326) |  |  |  |  | binds
